Source: the antibiotic and cytotoxicity screens of Wong et al. (2023)
This is one part of the list.

test system: S. aureus RN4220; test: growth inhibition call (relative growth <= 0.2); conditions: 50 µM

Growth inhibition call, inactive:
C[C@@H]1CN([C@@H](C)CO)C(=O)c2cc(NS(=O)(=O)c3cccs3)ccc2O[C@H]1CN(C)Cc1ccncc1, C[C@H](CO)N1C[C@H](C)[C@@H](CN(C)C(=O)Nc2ccc(C(F)(F)F)cc2)Oc2c(NC(=O)Nc3cccc4ccccc34)cccc2C1=O, CC(C)CCCC(C)NC(C)C.Cl (stereo not given), Cc1noc(C)c1NC(=O)N(C)C[C@@H]1OCCCC[C@H](C)Oc2ccc(NS(=O)(=O)c3cccs3)cc2C(=O)N([C@@H](C)CO)C[C@@H]1C, C[C@H](CO)N1C[C@H](C)[C@H](CN(C)C(=O)Cc2cccnc2)Oc2ncc(C#CC3(O)CCCC3)cc2C1=O, Cc1noc(C)c1NC(=O)Nc1ccc2c(c1)C(=O)N([C@@H](C)CO)C[C@@H](C)[C@@H](CN(C)Cc1ccc(C(F)(F)F)cc1)OCCCC[C@@H](C)O2, COc1ccc(S(=O)(=O)Nc2ccc3c(c2)C(=O)N([C@H](C)CO)C[C@@H](C)[C@@H](CN(C)S(=O)(=O)c2ccccc2)O3)cc1, Cc1noc(C)c1NC(=O)Nc1ccc2c(c1)CC(=O)N([C@H](C)CO)C[C@@H](C)[C@@H](CN(C)Cc1ccc(C(F)(F)F)cc1)O2, Cn1c([C@H]2C=C(C(=O)N[C@H]3c4ccccc4C[C@H]3O)O[C@@H](OCCCCO)C2)cc(=O)n1-c1ccccc1, O=C([O-])c1ccccc1O.[Na+], C[C@@H]1CN([C@@H](C)CO)C(=O)c2cc(NC(=O)Nc3ccccc3)ccc2O[C@@H]1CN(C)C(=O)Nc1ccc(C(F)(F)F)cc1, COc1ccc(S(=O)(=O)N(C)C[C@H]2Oc3c(NS(=O)(=O)c4c(C)noc4C)cccc3C(=O)N([C@@H](C)CO)C[C@@H]2C)cc1, COc1ccc(CN(C)C[C@@H]2OCCCC[C@H](C)Oc3ccc(NC(=O)c4ccncc4)cc3C(=O)N([C@H](C)CO)C[C@@H]2C)cc1, Cc1ccc(S(=O)(=O)N(C)C[C@@H]2Oc3ccc(NC(=O)CCN4CCOCC4)cc3CC(=O)N([C@@H](C)CO)C[C@@H]2C)cc1, C=C1OC(=O)C2=C1O[C@H](/C=C/C)[C@@H](O)[C@@H]2O, C[C@H](CO)N1C[C@H](C)[C@@H](CN(C)C(=O)c2ccccc2)Oc2cc(C#CC3(O)CCCC3)ccc2S1(=O)=O, CN1CCN(C(=O)C[C@@H]2CC[C@@H](NC(=O)c3ccc4c(c3)OCO4)[C@H](CO)O2)CC1, C[C@H]1CCCCO[C@H](CN(C)C(=O)Nc2ccc(C(F)(F)F)cc2)[C@@H](C)CN([C@@H](C)CO)C(=O)c2cc(NS(=O)(=O)c3ccc(F)cc3)ccc2O1, CNC(=O)Cn1cc(N)cn1, Cn1nc(Cn2ccnc2)c2c1CN(CCO)C2
